The list shows a part of the results. At the low end of the ranking, values are background and their order means little.

For this experiment, the target named is SIX1-Q177R homeodomain (UniProt Q15475). The experiment in a line: universal protein binding microarray. Conditions: Universal all-10-mer PBM (8x60K, AMADID 030236), 300 nM GST-tagged protein, Alexa Fluor 488 anti-GST; buffer, salt, pH and temperature not stated; high values mean tight binding; most listed sequences are background and not binding sites; double strand, one strand shown.
For CCTTATAG, the binding signal stood at 0.109 E-score. Consider GAGGTCGA, for which the binding signal was -0.0708 E-score. In the case of CACCACTC, the binding signal is 0.322 E-score. With GGGGGCAC, the binding signal was -0.00685 E-score. The value for ATGGAGTA was 0.239 E-score. As for CCAACGCC, the binding signal was 0.181 E-score. For CATCAAAA, the binding signal is -0.204 E-score. The value for CCCATACC was 0.0741 E-score; that for CGAATATC was -0.0113 E-score; that for ACCCCCAA was 0.312 E-score. As for AGGATATG, the binding signal was -0.0806 E-score. Turning to AAGAGACA, the binding signal came out at 0.0387 E-score. With AACCACAG, the binding signal was -0.0966 E-score. Take ACAAGAAT: the binding signal was -0.26 E-score. Regarding CCTTCGCG, the binding signal was -0.0565 E-score. In the case of AGCAAGCC, the binding signal was -0.262 E-score.

For the sequence ATTTCTCC, the binding signal is -0.316 E-score. Turning to CGGTCCGC, the binding signal is -0.152 E-score. Regarding CAAAGCGA, the binding signal is -0.0491 E-score. For ATGCTTGA, the binding signal was -0.204 E-score. The result for ACGTGAAA reads 0.00026 E-score. As to CGACCTAG, the binding signal was -0.0247 E-score. Take GAACTACC: the binding signal was -0.241 E-score. As to GTGAATTA, the binding signal was -0.146 E-score. As for ACAATAAA, the binding signal is -0.111 E-score. For the sequence ATGACAAC, the binding signal was found to be 0.0141 E-score. As to CCTCACAG, the binding signal was -0.00639 E-score. Regarding AGATTCGA, the binding signal was -0.0889 E-score. With CGAGGCTC, the binding signal was -0.0118 E-score. Turning to ATGGTCGG, the binding signal is 0.0694 E-score. The result for ATGCCGCA reads -0.0732 E-score. With CTCTGAAC, the binding signal is -0.184 E-score. The value for CACTATAA was 0.253 E-score; that for GGCCACGA was -0.125 E-score. Consider GGATCGAC, for which the binding signal came out at 0.0853 E-score.

Consider ACGCGTAT, for which the binding signal is -0.0625 E-score. On to GTGGTGTA, for which the binding signal came to 0.481 E-score. Take CGAATGAA: the binding signal is -0.14 E-score.

Take ATTCTAGG: the binding signal turned out to be 0.107 E-score.

Consider ATCCTGAA, for which the binding signal is -0.158 E-score.

Turning to CTTTGAGA, the binding signal was -0.0999 E-score. On to CCACTTCA, for which the binding signal was 0.0622 E-score. The result for AATAGACC reads -0.0992 E-score; that for ACTGACTA, -0.082 E-score.

With ACACCCTC, the binding signal came out at 0.474 E-score. The result for ACCGTCAC reads 0.103 E-score; that for CAGAACCG, 0.00298 E-score; that for CCGCAAGG, 0.15 E-score.

On to CGGAGAAA, for which the binding signal is -0.168 E-score.

As for CTACTGGA, the binding signal is -0.0195 E-score.

On to GAGATTGC, for which the binding signal is -0.0973 E-score. Take TAGAGTAA: the binding signal stood at 0.199 E-score. With CAATAACG, the binding signal was -0.151 E-score. The value for CTCCAGGA was 0.0126 E-score; that for GTGACCGA was -0.102 E-score. Turning to CAGGTCAA, the binding signal is -0.212 E-score. For CACCTTGA, the binding signal was 0.177 E-score.

Regarding CCTTATAA, the binding signal was determined as 0.179 E-score.

In the case of AGCGCCAA, the binding signal is -0.184 E-score. Regarding ATACACAT, the binding signal is 0.0906 E-score.

As for GACAGTCC, the binding signal is -0.207 E-score. Regarding CACCCGTG, the binding signal was found to be 0.37 E-score. In the case of GCAGTTAC, the binding signal amounted to 0.0766 E-score. In the case of AGCTTGCC, the binding signal is -0.222 E-score. Take CCGACGAA: the binding signal is -0.127 E-score. The result for GCTACTTA reads -0.157 E-score; that for AAAGTGTG, 0.184 E-score. Regarding AGCTAATG, the binding signal is -0.149 E-score. Turning to ATATCGGA, the binding signal was -0.0394 E-score. As for ACCCCCCC, the binding signal came to 0.31 E-score. The result for AGTTCCAT reads -0.192 E-score; that for GCACAGAC, -0.0626 E-score; that for AGCAACCC, -0.173 E-score. Consider CATCGCTC, for which the binding signal was -0.17 E-score. On to ACACTTAA, for which the binding signal was determined as 0.316 E-score. The result for ATCTCAGA reads -0.00349 E-score; that for ATGCACAC, 0.289 E-score; that for ACTACCAC, 0.0315 E-score. In the case of AACCCAAT, the binding signal is -0.124 E-score. GACCATTA: the binding signal is -0.268 E-score.

With ATGCGGAC, the binding signal is 0.0711 E-score. With AATACGCC, the binding signal was 0.085 E-score.

For CTTTGAGC, the binding signal was -0.169 E-score. With ATTGCGAG, the binding signal is -0.117 E-score. The result for GGGTACGA reads 0.0965 E-score; that for GGGTTTGA, 0.076 E-score. The result for AGGGTGAA reads -0.0425 E-score.

As for ATACCATA, the binding signal amounted to 0.132 E-score. Regarding AGTTCGAC, the binding signal is -0.132 E-score. Take GAGTCTCA: the binding signal is -0.0058 E-score.

Take AGCGATAA: the binding signal is -0.101 E-score.

As for GGGCCAGA, the binding signal was 0.0166 E-score. As for CCGGCTGC, the binding signal was 0.0305 E-score. On to ATGACATG, for which the binding signal is -0.134 E-score. The result for TGATTAAA reads -0.0768 E-score; that for AACCAGGC, -0.0657 E-score. On to CCTTCAAC, for which the binding signal is -0.0886 E-score. Turning to AAACGATC, the binding signal was -0.185 E-score.

As for ACTACGGG, the binding signal is 0.147 E-score. Consider CGATATCG, for which the binding signal was -0.108 E-score. The result for AACCATCA reads -0.149 E-score; that for CTGAGGCC, -0.246 E-score. GAGTCACC: the binding signal worked out at 0.157 E-score. The value for GGACAAAA was -0.117 E-score. The value for CCACGGGG was 0.194 E-score; that for AGATCCAC was 0.00024 E-score; that for AAGCGACC was -0.0733 E-score. The value for CTCAATGC was -0.148 E-score; that for AGGAGGAT was -0.0817 E-score.

The record behind these values is PMC10668032.
